What all share (assay): protein-binding microarray (PBM)
What all share (settings): PBM: ~300 nM protein, 6 mM HEPES pH 7.8, 80 mM KCl, 0.5 mM EDTA, 0.5 mM EGTA, 6% glycerol, 35 ng/ul poly-dIdC, 1% milk, 1 h, room temperature; Ap Aiptasia and Nv Nematostella (sea anemones) / Co Capsaspora / Aq Amphimedon (sponge) / Dm Drosophila / Hu human; RHD is the Rel homology domain; high values mean tight binding; most listed sequences are background and not binding sites; double strand, one strand shown

Assay [1] has as its target T1, GST-Ap-NF-kB RHD (UniProt A0A913YAJ5).
T1 sequence: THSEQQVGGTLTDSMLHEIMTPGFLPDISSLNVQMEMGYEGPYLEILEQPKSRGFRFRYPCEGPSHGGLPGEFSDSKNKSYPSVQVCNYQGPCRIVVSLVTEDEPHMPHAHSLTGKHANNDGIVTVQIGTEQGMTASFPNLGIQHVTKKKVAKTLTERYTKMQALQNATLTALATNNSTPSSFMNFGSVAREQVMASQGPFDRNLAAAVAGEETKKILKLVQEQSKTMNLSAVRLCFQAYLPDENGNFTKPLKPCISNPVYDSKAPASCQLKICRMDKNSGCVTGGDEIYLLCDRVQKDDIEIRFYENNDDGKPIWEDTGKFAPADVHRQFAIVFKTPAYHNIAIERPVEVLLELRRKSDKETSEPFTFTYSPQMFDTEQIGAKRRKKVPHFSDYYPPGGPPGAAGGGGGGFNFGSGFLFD

For assay [2], the target named is T2, GST-Nv-NF-kB (Cys allele) (UniProt E5G601).
T2 sequence: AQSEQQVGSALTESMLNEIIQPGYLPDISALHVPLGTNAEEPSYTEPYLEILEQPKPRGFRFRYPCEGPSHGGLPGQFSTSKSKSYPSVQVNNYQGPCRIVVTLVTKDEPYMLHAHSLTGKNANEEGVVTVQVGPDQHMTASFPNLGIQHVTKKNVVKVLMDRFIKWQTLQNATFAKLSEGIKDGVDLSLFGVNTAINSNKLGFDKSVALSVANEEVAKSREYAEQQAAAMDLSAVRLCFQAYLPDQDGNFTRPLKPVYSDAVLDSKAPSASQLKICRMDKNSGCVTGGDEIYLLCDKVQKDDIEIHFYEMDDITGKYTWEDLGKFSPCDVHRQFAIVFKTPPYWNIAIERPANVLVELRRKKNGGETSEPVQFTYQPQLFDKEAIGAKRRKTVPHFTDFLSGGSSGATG

Assay [3] concerns the target T3, GST-Co-NF-kB (UniProt F1ARL5).
T3 sequence: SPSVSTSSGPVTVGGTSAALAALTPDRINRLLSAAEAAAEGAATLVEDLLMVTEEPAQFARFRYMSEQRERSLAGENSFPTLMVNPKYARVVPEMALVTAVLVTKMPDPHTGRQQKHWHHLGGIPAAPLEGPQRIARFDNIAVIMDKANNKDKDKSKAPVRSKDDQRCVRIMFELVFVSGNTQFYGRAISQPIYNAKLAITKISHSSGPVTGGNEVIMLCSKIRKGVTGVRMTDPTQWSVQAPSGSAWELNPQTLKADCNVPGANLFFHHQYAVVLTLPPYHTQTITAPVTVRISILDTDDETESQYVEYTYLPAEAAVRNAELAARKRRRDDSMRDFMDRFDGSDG

Assay [4] deals with T4, GST-Dm-Relish (UniProt Q94527).
T4 sequence: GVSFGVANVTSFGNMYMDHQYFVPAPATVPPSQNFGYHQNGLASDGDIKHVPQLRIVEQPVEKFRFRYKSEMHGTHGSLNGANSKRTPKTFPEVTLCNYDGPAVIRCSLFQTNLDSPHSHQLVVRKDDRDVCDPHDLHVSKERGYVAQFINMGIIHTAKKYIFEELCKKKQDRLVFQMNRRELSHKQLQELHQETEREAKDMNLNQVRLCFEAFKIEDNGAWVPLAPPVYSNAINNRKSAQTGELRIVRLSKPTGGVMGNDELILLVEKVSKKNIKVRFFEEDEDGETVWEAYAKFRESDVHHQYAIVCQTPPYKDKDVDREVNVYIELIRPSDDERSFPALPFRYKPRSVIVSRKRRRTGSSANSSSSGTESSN

The target in assay [5] is T5, GST-Aq-NF-kB (UniProt A9Y5G7).
T5 sequence: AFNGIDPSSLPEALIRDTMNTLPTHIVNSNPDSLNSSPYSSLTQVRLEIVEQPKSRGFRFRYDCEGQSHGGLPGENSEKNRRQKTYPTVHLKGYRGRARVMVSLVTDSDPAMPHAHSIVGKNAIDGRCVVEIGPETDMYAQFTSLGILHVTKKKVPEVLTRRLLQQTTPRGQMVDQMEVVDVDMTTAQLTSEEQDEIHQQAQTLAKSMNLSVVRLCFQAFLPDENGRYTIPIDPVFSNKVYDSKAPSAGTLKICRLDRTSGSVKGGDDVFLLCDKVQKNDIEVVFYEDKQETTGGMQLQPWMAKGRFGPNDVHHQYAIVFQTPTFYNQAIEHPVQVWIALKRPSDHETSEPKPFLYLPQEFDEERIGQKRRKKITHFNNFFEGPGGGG

Only a part is listed here, and it is no random draw. The list includes weakly bound sequences.

This passage reports binding signal results from paper PMC5700166.

Take “CCGATTAACATCACCGCCACGCATGATGTTAATCGGGTCTTGATTCGCTTGACGCTGCTG”: the binding signal in assay [1] was 0.94 z-score; in assay [2] it was -0.51 z-score; in assay [3], 0.066 z-score; in assay [4], 0.956 z-score; in assay [5], 0.327 z-score.
On the same counts, the results for “CCGATTAACATCAAAATCATTCGTGATGTTAATCGGGTCTTGATTCGCTTGACGCTGCTG” are -0.483 z-score, -0.22 z-score, -0.146 z-score, 0.0836 z-score and -0.335 z-score.
With “CCGATTAACATCAAACGCCCATCTGATGTTAATCGGGTCTTGATTCGCTTGACGCTGCTG”, the binding signal was -0.279 z-score in assay [1]; -0.165 z-score in assay [2]; -0.298 z-score in assay [3]; -0.546 z-score in assay [4]; -0.29 z-score in assay [5].
In the case of “CCGATTAACATCACGCCGACTTTTGATGTTAATCGGGTCTTGATTCGCTTGACGCTGCTG”, the binding signal was 0.568 z-score in assay [1]; 0.0035 z-score in assay [2]; -0.184 z-score in assay [3]; 0.0745 z-score in assay [4]; -0.352 z-score in assay [5].
As to “CCGATTAACATCAGATTCTCATCTGATGTTAATCGGGTCTTGATTCGCTTGACGCTGCTG”, the binding signal in assay [1] is -1.04 z-score; in assay [2] it was 0.925 z-score; in assay [3] it was -1.81 z-score; in assay [4], -0.573 z-score; in assay [5], -0.375 z-score.
Turning to “CCGATTAACATCACTCAATTACGTGATGTTAATCGGGTCTTGATTCGCTTGACGCTGCTG”, the binding signal in assay [1] is -0.712 z-score; in assay [2], 0.416 z-score; in assay [3], 0.112 z-score; in assay [4], 0.422 z-score; in assay [5], -0.765 z-score.
In the case of “CCGATTAACATCAGCTGCGTTTATGATGTTAATCGGGTCTTGATTCGCTTGACGCTGCTG”, the binding signal in assay [1] is -0.499 z-score; in assay [2], 0.204 z-score; in assay [3] it was -0.9 z-score; in assay [4], -0.748 z-score; in assay [5], -0.732 z-score.
In the case of “CCGATTAACATCACACAAGGCTTTGATGTTAATCGGGTCTTGATTCGCTTGACGCTGCTG”, the binding signal in assay [1] was -0.739 z-score; in assay [2] it was -0.176 z-score; in assay [3], -1.02 z-score; in assay [4] it was 0.224 z-score; in assay [5], -0.628 z-score.
Consider “CCGATTAACATCAACGGACAACTTGATGTTAATCGGGTCTTGATTCGCTTGACGCTGCTG”, for which the binding signal is -0.0424 z-score in assay [1]; 0.275 z-score in assay [2]; 0.15 z-score in assay [3]; -0.387 z-score in assay [4]; -0.117 z-score in assay [5].
Take “CCGATTAACATCACCGTTTAAGCTGATGTTAATCGGGTCTTGATTCGCTTGACGCTGCTG”: the binding signal in assay [1] is 0.048 z-score; in assay [2], 0.954 z-score; in assay [3], -0.493 z-score; in assay [4], 0.433 z-score; in assay [5], 0.216 z-score.
With “CCGATTAACATCAGCGGTTGCTGTGATGTTAATCGGGTCTTGATTCGCTTGACGCTGCTG”, the binding signal in assay [1] is -0.467 z-score; in assay [2], -0.441 z-score; in assay [3], -0.501 z-score; in assay [4], -0.243 z-score; in assay [5], -0.355 z-score.
For “CCGATTAACATCACGTGCTAGCCTGATGTTAATCGGGTCTTGATTCGCTTGACGCTGCTG”, the binding signal in assay [1] is -0.329 z-score; in assay [2] it was -0.378 z-score; in assay [3], -1.35 z-score; in assay [4] it was -0.835 z-score; in assay [5], -0.455 z-score.
On the same counts, the results for “CCGATTAACATCAAGTGAAGTAGTGATGTTAATCGGGTCTTGATTCGCTTGACGCTGCTG” are -0.0963 z-score, 0.223 z-score, -0.117 z-score, 0.046 z-score and -0.251 z-score.
Consider “CCGATTAACATCACTATCCTTGGTGATGTTAATCGGGTCTTGATTCGCTTGACGCTGCTG”, for which the binding signal in assay [1] was -0.103 z-score; in assay [2], 0.475 z-score; in assay [3] it was 0.725 z-score; in assay [4], 0.232 z-score; in assay [5] it was -0.051 z-score.
In the case of “CCGATTAACATCACGTAAATCCATGATGTTAATCGGGTCTTGATTCGCTTGACGCTGCTG”, the binding signal in assay [1] was -0.671 z-score; in assay [2], -0.161 z-score; in assay [3], 0.611 z-score; in assay [4], 1 z-score; in assay [5], -0.341 z-score.
Turning to “CCGATTAACATCATACCGGGCTTTGATGTTAATCGGGTCTTGATTCGCTTGACGCTGCTG”, the binding signal in assay [1] was -0.604 z-score; in assay [2] it was -0.635 z-score; in assay [3], -1.16 z-score; in assay [4], -0.665 z-score; in assay [5], 0.281 z-score.
On the same counts, the results for “CCGATTAACATCAGACTGCTAGGTGATGTTAATCGGGTCTTGATTCGCTTGACGCTGCTG” are 0.0376 z-score, -0.219 z-score, -0.181 z-score, -0.0236 z-score and 0.184 z-score.
On to “CCGATTAACATCACAACGAGCCTTGATGTTAATCGGGTCTTGATTCGCTTGACGCTGCTG”, for which the binding signal in assay [1] was -0.484 z-score; in assay [2], -0.335 z-score; in assay [3], -0.642 z-score; in assay [4] it was -0.251 z-score; in assay [5] it was -0.289 z-score.
On to “CCGATTAACATCACGTGCTTTCCTGATGTTAATCGGGTCTTGATTCGCTTGACGCTGCTG”, for which the binding signal in assay [1] amounted to 0.279 z-score; in assay [2], 0.222 z-score; in assay [3] it was 0.492 z-score; in assay [4] it was 2.88 z-score; in assay [5], 1.36 z-score.
As to “CCGATTAACATCAGCGTGCGACGTGATGTTAATCGGGTCTTGATTCGCTTGACGCTGCTG”, the binding signal in assay [1] is -0.422 z-score; in assay [2], -0.479 z-score; in assay [3] it was -0.21 z-score; in assay [4], -0.096 z-score; in assay [5], -0.387 z-score.
In the case of “CCGATTAACATCAAGTGAATTCCTGATGTTAATCGGGTCTTGATTCGCTTGACGCTGCTG”, the binding signal was -0.171 z-score in assay [1]; 0.145 z-score in assay [2]; 0.344 z-score in assay [3]; 3.49 z-score in assay [4]; 0.625 z-score in assay [5].
Regarding “CCGATTAACATCAATGAGACTTATGATGTTAATCGGGTCTTGATTCGCTTGACGCTGCTG”, the binding signal in assay [1] is -0.646 z-score; in assay [2] it was -0.0816 z-score; in assay [3], -0.355 z-score; in assay [4], -0.41 z-score; in assay [5] it was -0.507 z-score.
Regarding “CCGATTAACATCACGTGATTTCCTGATGTTAATCGGGTCTTGATTCGCTTGACGCTGCTG”, the binding signal was -0.257 z-score in assay [1]; -0.0524 z-score in assay [2]; 0.754 z-score in assay [3]; 4.11 z-score in assay [4]; 0.831 z-score in assay [5].
Consider “CCGATTAACATCATTGGAACGCATGATGTTAATCGGGTCTTGATTCGCTTGACGCTGCTG”, for which the binding signal in assay [1] is -0.364 z-score; in assay [2] it was -0.38 z-score; in assay [3], -0.33 z-score; in assay [4], -0.552 z-score; in assay [5], -0.495 z-score.
“CCGATTAACATCACTAGGGTGCATGATGTTAATCGGGTCTTGATTCGCTTGACGCTGCTG”: the binding signal in assay [1] came out at 0.41 z-score; in assay [2], 0.349 z-score; in assay [3], 0.907 z-score; in assay [4], 0.183 z-score; in assay [5], 0.0272 z-score.
